Test results: PubChem BioAssay AID588591 (National Center for Advancing Translational Sciences (NCATS), 2011)
About 4,700 (1.2%) of roughly 390,000 compounds were called active. The shares of active, inactive and inconclusive entries below differ from those in the screen. Calls come from the whole dose curve; as a rule, active = well fitted inhibition curve with a large enough effect; inconclusive = small, poorly fitted or top-dose-only effect, or another doubt; inactive = no such curve, though single readings can be large or run the other way. A potency beside an inconclusive call is a rough fit, not a confirmed value.

target: DNA polymerase eta (Homo sapiens) (UniProt Q9Y253); experiment: qHTS for Inhibitors of Polymerase Eta; details: recombinant Pol eta, fluorescent DNA replication assay; series mostly up to 114 µM
UniProt Q9Y253, sequence (Q9Y253 whole entry, looked up): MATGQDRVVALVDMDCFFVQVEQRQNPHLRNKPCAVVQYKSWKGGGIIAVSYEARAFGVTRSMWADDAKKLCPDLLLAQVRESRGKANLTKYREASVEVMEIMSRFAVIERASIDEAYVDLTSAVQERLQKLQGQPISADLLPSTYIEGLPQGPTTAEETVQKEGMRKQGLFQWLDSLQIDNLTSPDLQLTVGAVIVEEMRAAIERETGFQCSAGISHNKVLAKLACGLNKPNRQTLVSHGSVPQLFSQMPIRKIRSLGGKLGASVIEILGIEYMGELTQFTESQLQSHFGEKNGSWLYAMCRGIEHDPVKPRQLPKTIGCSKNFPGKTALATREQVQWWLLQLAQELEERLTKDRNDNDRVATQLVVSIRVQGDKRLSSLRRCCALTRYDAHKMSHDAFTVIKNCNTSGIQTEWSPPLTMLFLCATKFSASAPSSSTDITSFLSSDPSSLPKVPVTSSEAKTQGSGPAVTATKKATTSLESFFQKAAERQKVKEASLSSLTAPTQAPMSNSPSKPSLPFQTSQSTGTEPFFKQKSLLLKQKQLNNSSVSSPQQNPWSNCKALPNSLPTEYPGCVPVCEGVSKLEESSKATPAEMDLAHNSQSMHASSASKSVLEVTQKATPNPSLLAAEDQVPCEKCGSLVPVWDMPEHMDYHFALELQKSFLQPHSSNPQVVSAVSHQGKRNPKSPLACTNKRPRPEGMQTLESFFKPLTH
Summary of the method: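 Pol eta (10 nM) was preincubated with compounds for 15 min at room temperature, after which fluorescent replication substrate (50 nM final) was added to start the reaction. Fluorescence was read kinetically at 0 and 10 min.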
Potency is the fitted concentration of half-maximal effect; tags give direction and shape of the fitted curve.

**Q.** How did the Potency turn out when `O=C(Cn1[nH]c(=O)c2ccccc2c1=O)NCCN1C(=O)S/C(=C\c2ccccc2)C1=O` was run?
**A.** inconclusive: 39.8 µM [inhibitor, partial curve]

**Q.** `CC1C/C(=C/c2ccccn2)C(=O)/C(=C/c2ccccn2)C1` (stereo not drawn) was tested. Which Potency did it give?
**A.** inconclusive: 79.4 µM [inhibitor, partial curve]

**Q.** Which Potency does the source give for `CC1CCCC(C)N1C(=O)COC(=O)CN1C(=O)c2ccccc2C1=O` (stereo not drawn) here?
**A.** inactive

**Q.** For `COC(=O)[C@@]1(Cc2ccc(OC)cc2)[C@H]2c3cc(C(=O)N4CCCC4)n(Cc4c(CO)[nH]cc(C)c4=O)c3C[C@H]2CN1C(=O)c1ccccc1`, which Potency is on record?
**A.** inconclusive: 89.1 µM [inhibitor, partial curve, poor fit]

**Q.** Which Potency does the source give for `COc1cccc(-c2n[nH]c(=S)n2Cc2ccco2)c1` here?
**A.** active: 35.5 µM

**Q.** With `Cc1ccc(SCC(=O)Nc2ccc(S(=O)(=O)Nc3nccs3)cc2)cc1` as the compound, how does the Potency read?
**A.** inconclusive: 22.4 µM [inhibitor, partial curve, poor fit]

**Q.** `COc1cc2c(c(OC)c1OC)-c1c(cc3c(c1O)OCO3)C[C@@H](C)[C@@H](C)C2` was tested. Which Potency did it give?
**A.** inconclusive: 8.91 µM [inhibitor, partial curve, poor fit]

**Q.** Which Potency does the source give for `O=C(O)CSc1c(Cl)c(=O)oc2ccc(Cl)cc12` here?
**A.** inconclusive: 20 µM [inhibitor, full curve]

**Q.** `CC1(C)S[C@@H]2[C@H](NC(=O)[C@H](N)c3ccc(O)cc3)C(=O)N2[C@H]1C(=O)O` was tested. Which Potency did it give?
**A.** inconclusive: 79.4 µM [inhibitor, partial curve, poor fit]

**Q.** For `COc1ccc(/C=C2\COc3ccccc3C2=O)cc1OC`, which Potency is on record?
**A.** inconclusive: 79.4 µM [inhibitor, partial curve]

**Q.** For `COC(=O)\C(C(C)=O)=C(/C=C/C=C/N(C)C)N(C)C`, which Potency is on record?
**A.** active: 14.1 µM

**Q.** For `COc1ccc(C=CC(=O)c2cc(O)ccc2O)cc1`, which Potency is on record?
**A.** inconclusive: 56.2 µM [inhibitor, partial curve, poor fit]

**Q.** How did the Potency turn out when `c1ccc(-c2nc(-c3cccnc3)cs2)cc1` was run?
**A.** inconclusive: 31.6 µM [inhibitor, single point]

**Q.** With `Cc1ccc(NC(=O)Cn2c(=O)cnc3ccccc32)cc1S(=O)(=O)N(C)C` as the compound, how does the Potency read?
**A.** inconclusive: 0.891 µM [inhibitor, full curve, poor fit]

**Q.** `C=C(C)C1CC=C(C)/C(=N\NC(=S)Nc2ccc(C)cc2)C1` (stereo not drawn) was tested. Which Potency did it give?
**A.** inactive

**Q.** `O=C(Nc1ccc(S(=O)(=O)Nc2nccs2)cc1)c1ccc(N2C(=O)c3ccccc3C2=O)cc1` was tested. Which Potency did it give?
**A.** inconclusive: 14.1 µM [inhibitor, partial curve, poor fit]

**Q.** Which Potency does the source give for `CC(C)c1nc2oc3c(NCC4CCCO4)ncnc3c2c2c1COC(C)(C)C2` (stereo not drawn) here?
**A.** inconclusive: 17.8 µM [inhibitor, partial curve, poor fit]

**Q.** With `CCOc1ccc(N2CC(C(=O)NNC(=O)c3ccc(Br)cc3)CC2=O)cc1` (stereo not drawn) as the compound, how does the Potency read?
**A.** inconclusive: 28.2 µM [inhibitor, single point]

**Q.** How did the Potency turn out when `Cc1cccc(Nc2nc(NCC3CCCO3)nc(N)c2[N+](=O)[O-])c1` (stereo not drawn) was run?
**A.** inconclusive: 3.98 µM [inhibitor, partial curve, poor fit]

**Q.** Which Potency does the source give for `COc1cc(/C=C/c2cccc[n+]2C)ccc1OCC(=O)Nc1ccccc1C` here?
**A.** inactive

**Q.** `O=C1C2CC=C(Cl)CC2C(=O)N1CCC[n+]1cccc2ccccc21` (stereo not drawn) was tested. Which Potency did it give?
**A.** inactive

**Q.** Which Potency does the source give for `COc1ccc(OC)c(/C=C/C(=O)N2C(=O)c3cccc(N)c3C2=O)c1` here?
**A.** inconclusive: 17.8 µM [inhibitor, partial curve, poor fit]

**Q.** How did the Potency turn out when `CC(=O)Nc1ccc(-n2nnnc2SCC(=O)Nc2cccc(NC(=O)c3ccco3)c2)cc1` was run?
**A.** inconclusive: 22.4 µM [inhibitor, full curve]

**Q.** For `COc1cccc2c1C(=O)c1c(O)c3c(c(O)c1C2=O)C[C@@](O)(C(=O)CO)C[C@@H]3O[C@H]1C[C@H](N)[C@H](O)[C@H](C)O1`, which Potency is on record?
**A.** active: 44.7 µM

**Q.** With `O=c1cccccc1NN=C1CCCCC1` as the compound, how does the Potency read?
**A.** inconclusive: 15.8 µM [inhibitor, full curve, poor fit]

**Q.** How did the Potency turn out when `O=[N+]([O-])c1cc2no[n+]([O-])c2cc1N1CCCCC1` was run?
**A.** active: 15.8 µM

**Q.** With `O=C(CCN1C(=O)/C(=C/c2ccc3c(c2)OCO3)SC1=S)Nc1cccc(C(=O)O)c1` as the compound, how does the Potency read?
**A.** inconclusive: 79.4 µM [inhibitor, partial curve]

**Q.** For `COc1ccc(/C=C/C(=O)O)cc1S(=O)(=O)Nc1ccc2c(c1)OCO2`, which Potency is on record?
**A.** inconclusive: 35.5 µM [inhibitor, full curve]

**Q.** With `COc1ccc2nc(NC(=O)c3nc(S(=O)(=O)Cc4ccccc4F)ncc3Cl)sc2c1` as the compound, how does the Potency read?
**A.** inconclusive: 100 µM [inhibitor, partial curve, poor fit]

**Q.** How did the Potency turn out when `CCOc1cc(N2CCOCC2)c(OCC)cc1NC(=O)C(NC(=O)c1c(F)cccc1F)C(C)C` (stereo not drawn) was run?
**A.** inactive

**Q.** `CCNS(=O)(=O)c1ccc(C(=O)OCc2cc(=O)oc3cc(OC)ccc23)cc1` was tested. Which Potency did it give?
**A.** inconclusive: 28.2 µM [inhibitor, full curve]

**Q.** With `O=C(Cn1c(=O)c2cccn2c2cccnc21)N1CCN(c2ccc(Cl)cc2)CC1` as the compound, how does the Potency read?
**A.** inconclusive: 28.2 µM [inhibitor, single point]

**Q.** With `O=C1C=C(NCc2ccc(Cl)cc2)CC(c2ccco2)C1` (stereo not drawn) as the compound, how does the Potency read?
**A.** inconclusive: 15.8 µM [inhibitor, partial curve, poor fit]

**Q.** Which Potency does the source give for `CC(=O)c1ccc(N2CCN(S(=O)(=O)c3ccc4c(c3)NC(=O)CC(=O)N4)CC2)cc1` here?
**A.** inconclusive: 28.2 µM [inhibitor, single point]

**Q.** With `CCC/C(=N/Nc1ccc(Cl)cc1)c1cnnc(-c2ccccc2)n1` as the compound, how does the Potency read?
**A.** inconclusive: 8.91 µM [inhibitor, partial curve]

**Q.** `O=C(Cn1nnc2ccccc2c1=O)NCc1ccco1` was tested. Which Potency did it give?
**A.** inconclusive: 17.8 µM [inhibitor, single point]

**Q.** With `O=[N+]([O-])c1ccc2[nH]c(O)c(N=NC(=S)Nc3cccnc3)c2c1` as the compound, how does the Potency read?
**A.** inconclusive: 56.2 µM [inhibitor, partial curve, poor fit]

**Q.** How did the Potency turn out when `COc1ccc(N2C(=S)NC3CS(=O)(=O)CC32)cc1` (stereo not drawn) was run?
**A.** inactive

**Q.** For `Cc1c(CCCl)c(Cl)n2c(nc3ccccc32)c1C#N`, which Potency is on record?
**A.** inconclusive: 8.91 µM [inhibitor, full curve, poor fit]

**Q.** How did the Potency turn out when `c1ccc(-c2nnnn2-c2ccccc2)cc1` was run?
**A.** inactive

**Q.** `Cc1ccc(-c2csc(NC(=O)/C=C/c3ccco3)c2C(=O)O)cc1` was tested. Which Potency did it give?
**A.** active: 28.2 µM

**Q.** With `O=C(Nc1ccccc1)c1ccccc1OCc1cccc([N+](=O)[O-])c1` as the compound, how does the Potency read?
**A.** inconclusive: 100 µM [inhibitor, partial curve, poor fit]

**Q.** With `CC[C@@]12C(=O)N(c3ccc(OC)cc3)C(=O)N1[C@H](c1ccc(Cl)cc1)[C@@H]1C(=O)N(C3CCCCC3)C(=O)[C@@H]12` as the compound, how does the Potency read?
**A.** inconclusive: 44.7 µM [inhibitor, partial curve, poor fit]

**Q.** With `Cc1ccc(-n2c3nc(=O)[nH]c(=O)c-3cc3cc([N+](=O)[O-])ccc32)cc1C` as the compound, how does the Potency read?
**A.** active: 20 µM

**Q.** How did the Potency turn out when `CCOc1ccc(NC(=O)CCS(=O)(=O)c2ccc(Br)s2)cc1` was run?
**A.** inconclusive: 89.1 µM [inhibitor, single point]

**Q.** With `CCOC(=O)c1c(C)c(-c2ccccc2)n(CC(=O)Nc2cccc(F)c2)c1C` as the compound, how does the Potency read?
**A.** inconclusive: 79.4 µM [inhibitor, partial curve, poor fit]

**Q.** For `N#Cc1c(N)n(-c2ccccc2)c(=O)c2cc([N+](=O)[O-])ccc12`, which Potency is on record?
**A.** inactive

**Q.** Which Potency does the source give for `O=C(COC(=O)/C=C/c1ccc2ccccc2n1)NNC(=O)c1ccc([N+](=O)[O-])cc1` here?
**A.** inconclusive: 39.8 µM [inhibitor, partial curve, poor fit]

**Q.** `CCN1/C(=C/C(=O)c2ccco2)Sc2ccccc21` was tested. Which Potency did it give?
**A.** inconclusive: 22.4 µM [inhibitor, partial curve, poor fit]

**Q.** How did the Potency turn out when `Cc1ccc([N+](=O)[O-])cc1-c1ccc(/C=C(\C#N)c2[nH]nc(N)c2C#N)o1` was run?
**A.** inconclusive: 3.16 µM [inhibitor, full curve, poor fit]

**Q.** `Cc1c(Cl)cccc1NC(=O)C1NC(=O)CC1c1ccccc1` (stereo not drawn) was tested. Which Potency did it give?
**A.** inconclusive: 100 µM [inhibitor, partial curve, poor fit]

**Q.** How did the Potency turn out when `CCN1C(=O)CC(NCc2ccc(S(N)(=O)=O)cc2)C1=O` (stereo not drawn) was run?
**A.** inconclusive: 89.1 µM [inhibitor, partial curve, poor fit]

**Q.** `O=C(CSc1nnc2n(C3CCCC3)c(=O)c3ccccc3n12)N1CCCCCC1` was tested. Which Potency did it give?
**A.** inactive

**Q.** `Cc1nnc2ccc(-c3ccc(NS(=O)(=O)c4ccccc4F)cc3)nn12` was tested. Which Potency did it give?
**A.** inactive

**Q.** Which Potency does the source give for `COCCC(=O)N1CCC(Oc2ccc(C(=O)NCCCC3CCCC3)cc2)CC1` here?
**A.** inconclusive: 89.1 µM [inhibitor, partial curve, poor fit]

**Q.** `CC1(C)C(=O)Nc2ccccc2N1C(=O)CSc1nc(-c2ccccc2)cs1` was tested. Which Potency did it give?
**A.** inconclusive: 89.1 µM [inhibitor, single point]

**Q.** How did the Potency turn out when `O=C(Nc1cccc(C(=O)Nc2cccc(Br)c2)c1)c1ccccc1` was run?
**A.** inactive

**Q.** `O=C1NC(c2cccs2)Nc2ccccc21` (stereo not drawn) was tested. Which Potency did it give?
**A.** inactive

**Q.** How did the Potency turn out when `CCc1ccc(NC(=O)Cn2c(=O)n(Cc3nc(C)no3)c(=O)c3cc4c(cc32)OCO4)cc1` was run?
**A.** inactive

**Q.** With `O=C(CN1CCN(c2ccc(Cl)cc2)CC1)Nc1ccc(Cl)c(C(F)(F)F)c1` as the compound, how does the Potency read?
**A.** inconclusive: 50.1 µM [inhibitor, partial curve, poor fit]

**Q.** `CCCCN(C(=O)COC(=O)c1ccc(C)s1)c1c(N)n(CCC)c(=O)[nH]c1=O` was tested. Which Potency did it give?
**A.** inactive

**Q.** For `COc1ccccc1/C=C/C=C1\Oc2c(ccc(O)c2CN2CCN(CCO)CC2)C1=O`, which Potency is on record?
**A.** inconclusive: 17.8 µM [inhibitor, partial curve, poor fit]

**Q.** For `O=C(COC(=O)C1CCCC1)Nc1ncc(Cl)cc1Cl`, which Potency is on record?
**A.** active: 15.8 µM
